Measurements reported in patent US12024547B2, “KLK5 inhibitory peptide” (DAIICHI SANKYO COMPANY, LIMITED, priority 2018, dated 2024).

T1: KLK5 (Homo sapiens, UniProt Q9Y337)
T1 construct: “Active KLK5” means active KLK5, which is composed of a domain having a protease activity; His tag (C); FLAG (Gly-DYKDDDDK before the His tag); made in house; host or cells: Expi293F cells
T1 sequence (Q9Y337 67-293): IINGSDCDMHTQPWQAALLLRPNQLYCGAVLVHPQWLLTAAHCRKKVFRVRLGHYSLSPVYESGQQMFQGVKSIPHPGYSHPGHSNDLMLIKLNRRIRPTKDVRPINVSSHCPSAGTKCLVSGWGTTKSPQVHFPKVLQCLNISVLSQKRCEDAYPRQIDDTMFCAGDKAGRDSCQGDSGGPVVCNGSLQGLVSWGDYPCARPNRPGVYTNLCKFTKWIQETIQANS

T2: human KLK14 (Homo sapiens, UniProt Q9P0G3)
T2 construct: His tag (C); FLAG (Gly-DYKDDDDK before the His tag); made in house; host or cells: Expi293F cells
T2 sequence (Q9P0G3 25-251): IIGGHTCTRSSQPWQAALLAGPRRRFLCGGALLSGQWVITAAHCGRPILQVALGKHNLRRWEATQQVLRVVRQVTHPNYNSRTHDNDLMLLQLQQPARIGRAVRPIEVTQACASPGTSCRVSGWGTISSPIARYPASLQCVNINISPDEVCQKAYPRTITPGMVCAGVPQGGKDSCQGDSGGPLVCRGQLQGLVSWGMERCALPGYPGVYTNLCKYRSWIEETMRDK


Experiments:
human KLK7 = target: T3, human KLK7 (Homo sapiens, UniProt P49862); assay: Human KLK7 inhibitory activity, peptide substrate degradation; type: biochemical; conditions: KLK5 inhibitory peptide Fc fusion; read-out: IC50(nM) for hKLK7
T3 construct: His tag (C); FLAG (Gly-DYKDDDDK before the His tag); made in house; host or cells: Expi293F cells
T3 sequence (P49862 30-253): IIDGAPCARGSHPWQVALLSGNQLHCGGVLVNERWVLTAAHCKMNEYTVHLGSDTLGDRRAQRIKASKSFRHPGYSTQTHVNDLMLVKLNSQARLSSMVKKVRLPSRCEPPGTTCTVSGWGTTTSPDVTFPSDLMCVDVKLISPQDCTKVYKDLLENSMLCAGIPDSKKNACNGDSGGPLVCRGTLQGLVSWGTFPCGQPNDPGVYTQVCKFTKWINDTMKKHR
Procedure: (§1) The substrate peptide was dissolved in DMSO to 10 mM and diluted with an assay buffer (50 mM Tris-HCl, 150 mM NaCl, pH 8.0) for use. 25 μL each of human/mouse KLK5, human/mouse KLK7, or human/mouse KLK14 and the inhibitory peptide diluted with the assay buffer were mixed, followed by a reaction at 37° C. for 20 minutes. Thereafter, 50 μL of a substrate diluted with the assay buffer was added thereto, and the fluorescence signal was measured using Enspire (PerkinElmer). The combinations of the enzyme and the substrate used were as follows.
Evaluation of Human KLK7 inhibitory activity: hKLK7 with a final concentration of 1 μg/mL, a substrate peptide Mca-Arg-Pro-Lys-Pro-Val-Glu-Nval-Trp-Arg-Lys (Dnp)-NH2 (SEQ ID NO: 101) (R&D Systems, Inc., FIG. 85, and the amino acid sequence shown in SEQ ID NO: 77) with a final concentration of 20 μM, and a fluorescence signal with excitation at 320 nm/emission at 405 nm
(§2) The average value of three independent experiments was used to calculate the IC50 value.
(§3) According to the method described in Example 3-1, the inhibitory activities of each KLK5 inhibitory peptide Fc fusion against human/mouse KLK5, human/mouse KLK7, and human/mouse KLK14 were evaluated. […] The average value of three independent experiments was used to calculate the IC50 value.

KLK5 = target: T1, KLK5; assay: KLK5 binding activity of KLK5 inhibitory peptide Fc fusion, surface plasmon resonance (Fc fusion captured, KLK5 as analyte); conditions: BIAcore T 200, single cycle kinetics
Procedure: In order to measure the binding affinity of a KLK5 inhibitory peptide Fc fusion prepared in (5-2), which will be described below, surface plasmon resonance analysis was conducted using BIAcore T 200 (GE healthcare).
The KLK5 inhibitory peptide Fc fusion was captured at a flow rate of 20 μL/min by Sensor Chip CM5 (GE healthcare) on which an anti-human IgG (Fc) antibody was immobilized to immobilize about 30 to 50 RU. Thereafter, KLK5, serially diluted 2-fold with HBS-EP (0.625 to 10 nM), was added thereto as an analyte at a flow rate of 30 μL/min. In the BIAcore T 200 Evaluation software (version 2.0), kon and koff were calculated by analysis using Single cycle kinetics in a simple one-to-one Langmuir binding model. The dissociation constant KD was calculated as a ratio of koff/kon. Further, the binding activity of KLK5 to multiple KLK5 inhibitory peptide Fc fusions was measured by regenerating Sensor Chip CM5 on which the anti-human IgG (Fc) antibody was immobilized using a Regeneration buffer attached to a Human Antibody Capture Kit (GE healthcare) and repeatedly capturing the KLK5 inhibitory peptide Fc fusion.

human KLK14 = target: T2, human KLK14; assay: Human KLK14 inhibitory activity, peptide substrate degradation; type: biochemical; conditions: KLK5 inhibitory peptide Fc fusion; read-out: IC50(nM) for hKLK14
Procedure: as §1
Evaluation of Human KLK14 inhibitory activity: hKLK14 with a final concentration of 0.2 μg/mL, a substrate peptide Boc-Val-Pro-Arg-AMC with a final concentration of 100 μM (R&D Systems, Inc.), and a fluorescence signal with excitation at 380 nm/emission at 460 nm
as §2, §3

Crusty2 (+/+) mice = assay: Suppression of transepidermal water loss (TEWL) increase in Netherton syndrome model mice; type: in vivo, mouse
Procedure: Crusty2 (+/−) mice and Crusty2 (+/+) mice were crossed by artificial insemination, and the KLK5 inhibitory peptide Fc fusion D1-K50055-Fc produced in (5-4) was evaluated using the resulting offspring (Crusty2 (+/−) mice or Crusty2 (+/+) mice). From 0 or 1 day after birth, PBS or 100 mg/kg of D1-K50055-Fc was subcutaneously administered every other day for 4 weeks. At the first administration only, a 3-fold amount of D1-K50055-Fc was administered as a loading dose. Using VAPO SCAN (AS-VT100RS, Asahi Techno Lab. Ltd.), TEWL on the skin of the back or hip of the mice was measured at 2 and 4 weeks after administration (FIG. 7). The number of Crusty2 (+/−) mice was 9, and the number of Crusty2 (+/+) mice was 12, in each of the PBS-administered group and the D1-K50055-Fc-administered group.

[1] = Crusty2 (+/+) mice, 100 mg/kg s.c. every other day, after 4 weeks, vs PBS-administered group

Koff (KLK5)	Molecule	also measured
2.93e-06 s⁻¹	D3-K51034-Fc: KLK5 inhibitory peptide Fc fusion, amino acid sequence SEQ ID NO: 42 (protein) DDDGPQFGLFSKYRTPNCGRYTTGGCNKEYEPVCGSDMSTYANECTLCMKIREGGHNIKIIRNGPC[gap - human IgG1 Fc]	
7.86e-06 s⁻¹	D3-K51090-Fc: KLK5 inhibitory peptide Fc fusion, amino acid sequence SEQ ID NO: 46 (protein) DDDGPQFGLFSKYRTPNCDEIGKYGCGRSYDPVCGSDMSTYANECTLCMKIREGGHNIKIIRNGPC[gap - human IgG1 Fc]	IC50 (human KLK7): > 1000 nM
5.69e-06 s⁻¹	D3-K50032dN-Fc: KLK5 inhibitory peptide Fc fusion, amino acid sequence SEQ ID NO: 34 (protein) DDDGPQFGLFSKYRTPNCLQWTDHQCERDYDPVCGSDMSTYANECTLCMKIREGGHNIKIIRNGPC[gap - human IgG1 Fc]	
1.81e-06 s⁻¹	D3-K51028-Fc: KLK5/KLK7 inhibitory peptide Fc fusion, amino acid sequence SEQ ID NO: 50 (protein) DDDGPQFGLFSKYRTPNCYQYRSKGCTHEYDPVCGSDMSTYANECTLCMKIREGGHNIKIIRNGPC[gap - human IgG1 Fc]	
<1.62e-06 s⁻¹	D3-K50098dN-Fc: KLK5 inhibitory peptide Fc fusion, amino acid sequence SEQ ID NO: 48 (protein) DDDGPQFGLFSKYRTPNCGSQTLGSCSREYDPVCGSDMSTYANECTLCMKIREGGHNIKIIRNGPC[gap - human IgG1 Fc]	
1.68e-06 s⁻¹	D3-K51072-Fc: KLK5 inhibitory peptide Fc fusion, amino acid sequence SEQ ID NO: 38 (protein) DDDGPQFGLFSKYRTPNCQEDMTEYCARDFDPVCGSDMSTYANECTLCMKIREGGHNIKIIRNGPC[gap - human IgG1 Fc]	
<1e-06 s⁻¹	D3-K50031-Fc: KLK5/KLK7 inhibitory peptide Fc fusion, amino acid sequence SEQ ID NO: 54 (protein) DDDGPQFGLFSKYRTPNCGEYKGRGCYYHYDPVCGSDMSTYANECTLCMKIREGGHNIKIIRNGPC[gap - human IgG1 Fc]	

Second part, the molecule before the results:

Molecule	Koff (KLK5)	also measured
D3-K50015-Fc: KLK5/KLK14 inhibitory peptide Fc fusion, amino acid sequence SEQ ID NO: 60 (protein) DDDGPQFGLFSKYRTPNCYDTTTHYCSREYDPVCGSDMSTYANECTLCMKIREGGHNIKIIRNGPC[gap - human IgG1 Fc]	3.52e-06 s⁻¹	IC50 (human KLK7): > 1000 nM
D3-K50055-Fc: KLK5 inhibitory peptide Fc fusion, amino acid sequence SEQ ID NO: 36 (protein) DDDGPQFGLFSKYRTPNCANTMKQDCTREYDPVCGSDMSTYANECTLCMKIREGGHNIKIIRNGPC[gap - human IgG1 Fc]	2.32e-06 s⁻¹	
D3-K50062-Fc: KLK5 inhibitory peptide Fc fusion, amino acid sequence SEQ ID NO: 44 (protein) DDDGPQFGLFSKYRTPNCQQYRELGCGRQYDPVCGSDMSTYANECTLCMKIREGGHNIKIIRNGPC[gap - human IgG1 Fc]	6.52e-06 s⁻¹	
D3-K51005-Fc: KLK5/KLK7 inhibitory peptide Fc fusion, amino acid sequence SEQ ID NO: 52 (protein) DDDGPQFGLFSKYRTPNCMQHARQGCHYDYDPVCGSDMSTYANECTLCMKIREGGHNIKIIRNGPC[gap - human IgG1 Fc]	1.96e-05 s⁻¹	IC50 (human KLK14): > 1000 nM
D3-K51069dN-Fc: KLK5/KLK14 inhibitory peptide Fc fusion, amino acid sequence SEQ ID NO: 58 (protein) DDDGPQFGLFSKYRTPNCGQVVETYCNRDYDPVCGSDMSTYANECTLCMKIREGGHNIKIIRNGPC[gap - human IgG1 Fc]	2.81e-06 s⁻¹	
D3-K50016dN-Fc: KLK5 inhibitory peptide Fc fusion, amino acid sequence SEQ ID NO: 40 (protein) DDDGPQFGLFSKYRTPNCGQWQYSSCDRVYDPVCGSDMSTYANECTLCMKIREGGHNIKIIRNGPC[gap - human IgG1 Fc]	5.6e-06 s⁻¹	
D3-K51057-Fc: KLK5/KLK7 inhibitory peptide Fc fusion, amino acid sequence SEQ ID NO: 56 (protein) DDDGPQFGLFSKYRTPNCGTMQGSGCTYHYEPVCGSDMSTYANECTLCMKIREGGHNIKIIRNGPC[gap - human IgG1 Fc]	1.79e-05 s⁻¹	
D1-K50055-Fc: KLK5 inhibitory peptide Fc fusion, amino acid sequence SEQ ID NO: 96 (protein) DGPQFGLFSKYRTPNCANTMKQDCTREYDPVCGSDMSTYANECTLCMKIREGGHNIKIIRNGPC[gap - human IgG1 Fc]		TEWL on the skin of the back (Crusty2 (+/+) mice; [1]): statistically significant decrease in TEWL; TEWL on the skin of the hip (Crusty2 (+/+) mice; [1]): statistically significant decrease in TEWL; dermatitis (Crusty2 (+/+) mice; Crusty2 mice with homo (+/+) SPINK5 mutation): improved dermatitis
